Data taken from patent US20240277658A1, “NLRP3 ACTIVATORS FOR USE IN THE TREATMENT OF INFECTIOUS DISEASES OR CANCER BY ACTIVATING NLRP3 INFLAMMASOME” (ALBERT-LUDWIGS-UNIVERSITÄT FREIBURG, priority 2020, published 2024).
Several values for one entry are separate records, joined by “and”; a condition that tells them apart may be missing. Identical values can stand only once. Counter-ions that a name gives are not always drawn. The name of at least one read-out is uncertain.

System: BMDCs
Assay: LDH release (lytic cell death, pyroptosis) from LPS-primed BMDCs
Type: cell-based, mouse
Protocol: This was tested in cell culture in several different in vitro assays classically used to investigate inflammasome activation. These include measuring inflammasome-dependent lytic cell death (pyroptosis) by detecting release of the cytosolic enzyme lactate dehydrogenase (LDH) using a commercial colorimetric assay and release of proinflammatory cytokines like IL-1β by enzyme-linked immunosorbent assay (ELISA), analyzing cleavage and activation of caspase-1 and IL-1β by immunoblotting and immunofluorescence imaging of ASC speck formation. Lytic cell death was determined via LDH release. Assay results for compounds are illustrated in the Tables below, wherein the concentration of the compounds tested had been 50 μM or as indicated in the table, and the concentration of the known activators has been tested with 5 μM of nigericin, 100 μM of each R837 and CL097. For classification of the activity of a given molecule, release of IL-1β was quantified as % of IL-1% of a respective control activator used for the experiment (highlighted in tables with bold letters). The compounds listes in Table 1 were classified into 4 groups depending on their ability to induce the NLRP3 inflammasome activation, assessed by % IL-1β release as compared to the positive control.
Mouse bone marrow-derived dendritic cells (BMDCs) were isolated from femurs and tibias previously described (Gross, Olaf, 2012, “Measuring the inflammasome”, Methods in molecular biology, Clifton, N.J., 844, pp. 199-222.). In brief, tibias and femurs were carefully removed and put to sterile 70% ethanol for 1 minute. Using a 22-G needle attached to a 20 ml-syringe filled with sterile flushing medium, the bone marrow was pressed through the mesh of a […] cell strainer. The cells were spun down by centrifugation at 400×g, 4° C. for 5 minutes and red blood cells lysed by resuspension and incubation for 5 minutes at room temperature in RBC lysis buffer. 9 ml of flushing medium were added and cells were again spun down by centrifugation at 400×g, 4° C. for 5 minutes. Cells were then resuspended in BMDC medium (RPMI, 10% fetal bovine serum, 1% penicillin-streptomycin100 U/ml, 20 ng/ml recombinant murine GM-CSF), counted and plated at a density of 0.5×10^6 cells ml^−1 in 10 ml medium and incubated at 37° C., 5% CO2 in a humidified incubator. After 2 days, 10 ml of fresh medium were added to the cells and after 4 days, the medium was fully exchanged to 20 ml of fresh medium. The cells were allowed to differentiate for 6 to 8 days before usage.
For canonical inflammasome activation BMDCs after 7-9 days of differentiation were harvested and counted with a Neubauer Chamber (Hecht Assistant) and the concentration was set to 1 Mio cells ml^−1. 100 μl cell suspension per well were seeded in 96-well plates. The cells were primed with 50 ng ml^−1 E. coli K12 ultra-pure LPS for 3 hours and subsequently treated with canonical inflammasome activators or experimental compounds for 3 hours if not indicated differently (incubation time FIG. 4D, 5, 7, 8, 11, 13-18: 3 h, FIG. 12: 4 h). Concentrations of the stimuli were as follows if not indicated differently: 5 μM nigericin, 100 μM imiquimod (also known as R837), 100 μM CL097, 100 μM R848, […] poly(dA:dT), 300 μg ml^−1 MSU. If an inhibitor was used before stimuli treatment, the inhibitor was added after 2.5 hours of priming and it was incubated for 30 minutes before inflammasome activation. Inhibitors were used as follows: 3 μM MCC950, 45 mM KCl, 30 μM ebselen (2-Phenyl-1,2-benzoselenazol-3-one), 5 μM cytochalasin D (see FIGS. 8, 11, 12 and 17).
All inflammasome stimulations were performed in three technical replicates for each condition. […]

[1] = single replicates, compound 50 μM, LPS-primed BMDCs
[2] = 20 μM, individual replicate values
[3] = section 1.4, single replicates, 18.75 μM
[4] = 25 μM, individual replicate values, EN11 series table
[5] = 50 μM, individual replicate values, EN11 series table
[6] = 100 μM, individual replicate values

SMILES: O=C(Nc1ccccc1)Nc1cccc(NC(=O)C2CC2)c1 [L01.084, N-{3-[(phenylcarbamo-yl)amino]phenyl}cyclo-propanecarboxamide]
- LDH release (% of max.) [1]: 6.209 % of max. and 5.461 % of max.

SMILES: O=C(Nc1ccccc1)Nc1ccc2ncc(Br)cc2c1 [JB004, 1-(3-bromoquinolin-6-yl)-3-phenylurea]
- LDH release (% of max.) [2]: 16.589 % of max. and 15.720 % of max.
- LDH release (% of max.) (40 μM, individual replicate values): 30.949 % of max. and 26.130 % of max.
- LDH release (% of max.) (80 μM, individual replicate values): 36.552 % of max. and 38.206 % of max.

SMILES: O=C(Nc1cccc(Cl)c1)Nc1ccc([N+](=O)[O-])cc1Cl [TCMDC-143175, 3-(2-chloro-4-nitrophen-yl)-1-(3-chlorophenyl)-urea]
- LDH release (% of max.) [3]: 34.424 % of max. and 36.807 % of max.
- LDH release (% of max.) (section 1.4, single replicates, 37.5 μM): 79.023 % of max. and 72.133 % of max.
- LDH release (% of max.) (section 1.4, single replicates, 75 μM): 93.190 % of max. and 89.533 % of max.

SMILES: O=C(Nc1ccccc1)Nc1ccc(N2CCCC2)cc1 [L01.004, 3-phenyl-1-[4-(pyrrol-idin-1-yl)phenyl]urea]
- LDH release (% of max.) [1]: 16.970 % of max. and 18.507 % of max.

SMILES: Cc1ccc(NC(=O)Nc2ccccc2)cc1F [L01.124, 3-(3-fluoro-4-methyl-phenyl)-1-phenylurea]
- LDH release (% of max.) [1]: 13.508 % of max. and 14.589 % of max.

SMILES: CC1Oc2ccc(NC(=O)Nc3ccccc3)cc2NC1=O (stereo not drawn) [L01.110, 3-(2-methyl-3-oxo-3,4-dihydro-2H-1,4-benzox-azin-6-yl)-1-phenylurea]
- LDH release (% of max.) [1]: 34.294 % of max. and 31.850 % of max.

SMILES: CC(C)CC(NC(=O)Nc1cccc(N2CCNC2=O)c1)c1nc(-c2nnc[nH]2)no1 (stereo not drawn) [L01.010, 3-{3-methyl-1-[3-(4H-1,2,4-triazol-3-yl)-1,2,4-oxadiazol-5-yl]butyl}-1-[3-(2-oxoimidazolidin-1-yl)phenyl]urea]
- LDH release (% of max.) [1]: 6.006 % of max. and 5.521 % of max.

SMILES: CN1C(=O)c2ccc(NC(=O)Nc3ccccc3)cc2C1=O [L01.128, 3-(2-methyl-1,3-dioxo-2,3-dihydro-1H-iso-indol-5-yl)-1-phenyl-urea]
- LDH release (% of max.) [1]: 11.691 % of max. and 11.469 % of max.

SMILES: CO[C@@H]1C[C@@H](C[C@H]2CC[C@H](C)[C@H]([C@@H](C)C(=O)O)O2)O[C@]2(O[C@](C)([C@H]3CC[C@@](C)([C@@H]4O[C@@H]([C@H]5O[C@@](O)(CO)[C@H](C)C[C@@H]5C)C[C@@H]4C)O3)C[C@H]2C)[C@@H]1C [Nigericin, Nigericin sodium salt, reference compound]
- LDH release (% of max.) (section 1.3, single replicates, 5 μM, sodium salt): 50.151 % of max. and 43.167 % of max. and 67.752 % of max.
- LDH release (% of max.) (single replicates, 5 μM, LPS-primed BMDCs, sodium salt): 78.845 % of max. and 69.982 % of max. and 78.413 % of max. and 75.764 % of max. and 74.003 % of max.

SMILES: O=C(Nc1ccccc1)Nc1cccc(N2CCOC2=O)c1 [L01.045, 1-[3-(2-oxo-1,3-oxazol-idin-3-yl)phenyl]-3-phenylurea]
- LDH release (% of max.) [1]: 5.813 % of max. and 3.780 % of max.

SMILES: Cc1ccc(-c2noc(CN3C(=O)CN(c4ccccc4)C3=O)n2)cc1 [L01.127, 3-{[3-(4-methylphenyl)-1,2,4-oxadiazol-5-yl]-methyl}-1-phenylimid-azolidine-2,4-dione]
- LDH release (% of max.) [1]: 10.459 % of max. and 9.932 % of max.

SMILES: O=C(Nc1ccccc1)Nc1ccc2ncccc2c1 [EN22, 1-phenyl-3-(quinolin-6-yl)urea]
- LDH release (% of max.) (10 μM, individual replicate values): 74.908 % of max. and 77.404 % of max.
- LDH release (% of max.) [2]: 55.225 % of max.
- LDH release (% of max.) [4]: 49.199 % of max. and 51.489 % of max.
- LDH release (% of max.) (section 1.2, single replicates, 25 μM): 29.703 % of max. and 30.593 % of max.
- LDH release (% of max.) [3]: 72.290 % of max. and 70.369 % of max.
- LDH release (% of max.) [1]: 74.624 % of max. and 67.018 % of max. and 74.225 % of max. and 71.324 % of max. and 71.181 % of max.

SMILES: O=C(Nc1cc(Cl)cc(Cl)c1)Nc1ccc([N+](=O)[O-])cc1Cl [AH1, 1-(2-chloro-4-nitrophenyl)-3-(3,5-dichlorophenyl) urea]
- LDH release (% of max.) (25 μM, individual replicate values, AH series table): 40.911 % of max. and 40.281 % of max.
- LDH release (% of max.) (50 μM, individual replicate values, AH series table): 59.555 % of max. and 56.124 % of max.
- LDH release (% of max.) (75 μM, individual replicate values): 59.098 % of max. and 60.723 % of max.

SMILES: CC(C)C(NC(=O)Nc1ccc2c(c1)COC2)c1nc(-c2cccnc2)no1 (stereo not drawn) [L01.114, 3-(1,3-dihydro-2-benzo-furan-5-yl)-1-{2-meth-yl-1-[3-(pyridin-3-yl)-1,2,4-oxadiazol-5-yl]-propyl}urea]
- LDH release (% of max.) [1]: 9.932 % of max. and 8.701 % of max.

SMILES: O=C(Nc1ccccc1)Nc1cccc(NC(=O)c2ccoc2)c1 [L01.027, N-{3-[(phenylcarbamo-yl)amino]phenyl}furan-3-carboxamide]
- LDH release (% of max.) [1]: 7.373 % of max. and 8.025 % of max.

SMILES: O=C1CN(c2ccccc2)C(=O)N1Cc1nc(-c2ccc(Cl)cc2)no1 [L01.049, 3-{[3-(4-chlorophenyl)-1,2,4-oxadiazol-5-yl]-methyl}-1-phenylimid-azolidine-2,4-dione]
- LDH release (% of max.) [1]: 10.774 % of max. and 11.897 % of max.

SMILES: O=C(Nc1cccc(Cl)c1)N1CCOCC1c1nc(-c2cccs2)no1 (stereo not drawn) [L01.090, N-(3-chlorophenyl)-3-[3-(thiophen-2-yl)-1,2,4-oxadiazol-5-yl]morph-oline-4-carboxamide]
- LDH release (% of max.) [1]: 15.756 % of max. and 14.149 % of max.

SMILES: N#Cc1ccc(NC(=O)NC(CO)c2nc(-c3ccccc3)no2)cc1 (stereo not drawn) [L01.112, 1-(4-cyanophenyl)-3-[2-hydroxy-1-(3-phenyl-1,2,4-oxadiazol-5-yl)-ethyl]urea]
- LDH release (% of max.) [1]: 6.971 % of max. and 7.035 % of max.

SMILES: O=C(NCCCc1ccccc1)Nc1ccc2ncccc2c1 [EN11-13, 1-(3-phenylpropyl)-3-(quinolin-6-yl)urea]
- LDH release (% of max.) [4]: 7.580 % of max. and 7.769 % of max.
- LDH release (% of max.) [5]: 9.817 % of max. and 10.629 % of max.
- LDH release (% of max.) [6]: 15.515 % of max. and 13.905 % of max.

SMILES: O=C(Nc1ccc2ncccc2c1)NC1CCCCC1 [EN11-02, 1-cyclohexyl-3-(quin-olin-6-yl)urea]
- LDH release (% of max.) [4]: 11.389 % of max. and 9.725 % of max.
- LDH release (% of max.) [5]: 10.847 % of max. and 10.953 % of max.
- LDH release (% of max.) [6]: 10.610 % of max. and 9.486 % of max.

SMILES: CC(C)C(NC(=O)Nc1ccc(Cl)cc1)c1nc(-c2ccccc2)no1 (stereo not drawn) [L01.097, 1-(4-chlorophenyl)-3-[2-methyl-1-(3-phenyl-1,2,4-oxadiazol-5-yl)-propyl]urea]
- LDH release (% of max.) [1]: 35.627 % of max. and 37.427 % of max.

SMILES: O=C(NCc1nc(C2CC2)no1)Nc1cccc(F)c1 [L01.081, 3-[(3-cyclopropyl-1,2,4-oxadiazol-5-yl)methyl]-1-(3-fluorophenyl)urea]
- LDH release (% of max.) [1]: 5.589 % of max. and 6.539 % of max.

SMILES: CC(C)Cn1cnc2c(N)nc3ccccc3c21 [imiquimod, reference compound]
- LDH release (% of max.) (single replicates, 100 μM, LPS-primed BMDCs, listed as R837): 12.734 % of max. and 15.684 % of max. and 15.495 % of max. and 20.399 % of max. and 34.109 % of max. and 57.377 % of max.

SMILES: O=C(NCc1nc(-c2ccsc2)no1)Nc1cc(Cl)cc(Cl)c1 [L01.115, 1-(3,5-dichlorophenyl)-3-{[3-(thiophen-3-yl)-1,2,4-oxadiazol-5-yl]-methyl}urea]
- LDH release (% of max.) [1]: 22.026 % of max. and 20.929 % of max.

SMILES: O=C(Nc1ccccc1)Nc1ccc(OC(F)(F)F)cc1 [L01.061, 1-phenyl-3-[4-(trifluoro-methoxy)phenyl]urea]
- LDH release (% of max.) [1]: 13.336 % of max. and 13.232 % of max.

SMILES: O=C(Nc1ccccc1)Nc1ccc(NC(=O)c2ccoc2)cc1 [L01.092, N-{4-[(phenylcarbamo-yl)amino]phenyl}furan-3-carboxamide]
- LDH release (% of max.) [1]: 14.952 % of max. and 13.605 % of max.
